According to PubChem BioAssay AID743279 (National Center for Advancing Translational Sciences (NCATS), 2014):
“And” between values parts separate entries of the source, which are not always exact repeats. Equal entries are not always repeated. Out of some 360,000 compounds screened, about 17,000 (4.7%) were called active. The shares of active, inactive and inconclusive entries below differ from those in the screen. Cut-off read from the data, not from the text of the source: active = activity change below about -50%; inconclusive = mostly about -30% to -49%; inactive = weaker than that.

Assay: qHTS for Inhibitors of Inflammasome Signaling: IL-1-beta AlphaLISA Primary Screen
Conditions: THP-1 LPS/ATP IL-1B secretion, 16 h; at 57.5 µM, active compounds read low
In short: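 THP-1 cells pretreated 1 hr with compounds (up to 57.5 uM final), then stimulated with LPS (250 ng/mL final) plus ATP (1.25 mM final); secreted IL-1B measured by AlphaLISA after 16 hr, decreased signal indicating inhibition.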
% is set by controls: 0 for no effect and ±100 for the full control effect.

SMILES | activity change
Cc1cccc(-c2cc(NCCc3cccnc3)n3nccc3n2)c1 | inactive: 14.3%
N#Cc1c(N2CCN(C(=O)c3ccccc3Cl)CC2)nc(-c2ccccc2)c2c1CCCC2 | active: -57.8%
Cc1cc(Br)cc2c(C(=O)NCC3CCCO3)cc(-c3ccccc3)nc12 (centres undefined) | inactive: 2.35%
O=C(NC(Cc1ccccc1)c1ccc2c(c1)OCCCO2)c1ccc(F)cc1 (centres undefined) | inactive: -3.73%
CN(C)CCNc1oc(COc2ccc(Cl)cc2)nc1C#N | inconclusive: -40.7%
O=[N+]([O-])c1ccc(N/N=C/c2ccccc2)cc1 | active: -59.6%
COc1cc(C(=O)NC(=S)Nc2ccc3c(c2)OCO3)cc(OC)c1OC | inactive: -0.96%
CCC(Sc1nc2ccsc2c(=O)n1-c1ccc(Cl)c(C)c1)C(=O)NCc1ccco1 (centres undefined) | active: -71%
COCCn1c(SCC(=O)Nc2ccc(F)cc2)nc2ccccc2c1=O | inconclusive: -38.1%
Cc1nc2cc(NC(=O)CS(=O)(=O)c3ccc(F)cc3)ccc2s1 | inactive: -14.2%
Cc1ccccc1CN(c1ccc(C(=O)N2CCN(C)CC2)cc1)S(C)(=O)=O | inactive: 6.58%
Cc1cc(C)c(OCC(=O)NCC(c2ccco2)N2CCCCC2)c(C)c1 (centres undefined) | inconclusive: -42.4%
COc1ccc(-c2nc3cnccn3c2NC2CCCCC2)cc1-c1cccc(Cl)c1 | active: -76.6% and active: -52.7%
CCOC(=O)c1c(C)[nH]c(C)c1C(=O)COC(=O)/C=C/c1cccc(Cl)c1 | inconclusive: -40.2%
COc1cc(S(=O)(=O)Nc2ncn[nH]2)ccc1Cl | inactive: 8.42%
CC(C)n1c(CNC(=O)c2ccccc2F)nnc1SCC(=O)c1ccc(F)cc1 | inactive: 21.8%
CCCC(C)c1nnc(NC(=O)CCS(=O)(=O)c2ccccc2)s1 (centres undefined) | active: -95.7%
CN1CCN(CCCNC(=O)c2ccc(/C=C3\Sc4ccccc4N(Cc4ccccc4F)C3=O)cc2)CC1 | inactive: -13.2%
Cc1cc(CN(C)Cc2ccc(OCC(O)CN(C)Cc3ccccc3)cc2)on1 (centres undefined) | inactive: 24.7%
COc1ccc(Cn2c(=O)[nH]c3cc(C(=O)NCCCN4CCCCCC4)ccc3c2=O)cc1 | inconclusive: -34.3%
COc1ccc(NC2CCCN(C(=O)Cn3ccc(C)n3)C2)cc1OC (centres undefined) | inactive: 1.17%
COc1cc(/C=N/N(C)S(=O)(=O)c2ccc(C)cc2)cc([N+](=O)[O-])c1O | inactive: 13.3%
FC(F)(F)c1cc(-c2ccco2)nc(NCc2ccc(Cl)cc2)n1 | inconclusive: -30.6%
CCCn1c(CCNc2nc(-c3cccc(Br)c3)cs2)nc2ccccc21 | inactive: 22.7%
